Measurements from publication PMC4336329 (PLoS ONE, 2015).
Hit rate of the full screen: of about 310,000 compounds, about 2,200 (0.71%) showed an effect of 50% or more. Effects have a minus sign here. The list shows a part of the results.

Target: human ether-à-go-go-related gene (hERG) potassium channel (human, UniProt Q12809)
Assay: primary screen, population patch clamp on CHO cells stably expressing hERG

human ether-à-go-go-related gene (hERG) potassium channel, sequence (Q12809 whole entry, looked up): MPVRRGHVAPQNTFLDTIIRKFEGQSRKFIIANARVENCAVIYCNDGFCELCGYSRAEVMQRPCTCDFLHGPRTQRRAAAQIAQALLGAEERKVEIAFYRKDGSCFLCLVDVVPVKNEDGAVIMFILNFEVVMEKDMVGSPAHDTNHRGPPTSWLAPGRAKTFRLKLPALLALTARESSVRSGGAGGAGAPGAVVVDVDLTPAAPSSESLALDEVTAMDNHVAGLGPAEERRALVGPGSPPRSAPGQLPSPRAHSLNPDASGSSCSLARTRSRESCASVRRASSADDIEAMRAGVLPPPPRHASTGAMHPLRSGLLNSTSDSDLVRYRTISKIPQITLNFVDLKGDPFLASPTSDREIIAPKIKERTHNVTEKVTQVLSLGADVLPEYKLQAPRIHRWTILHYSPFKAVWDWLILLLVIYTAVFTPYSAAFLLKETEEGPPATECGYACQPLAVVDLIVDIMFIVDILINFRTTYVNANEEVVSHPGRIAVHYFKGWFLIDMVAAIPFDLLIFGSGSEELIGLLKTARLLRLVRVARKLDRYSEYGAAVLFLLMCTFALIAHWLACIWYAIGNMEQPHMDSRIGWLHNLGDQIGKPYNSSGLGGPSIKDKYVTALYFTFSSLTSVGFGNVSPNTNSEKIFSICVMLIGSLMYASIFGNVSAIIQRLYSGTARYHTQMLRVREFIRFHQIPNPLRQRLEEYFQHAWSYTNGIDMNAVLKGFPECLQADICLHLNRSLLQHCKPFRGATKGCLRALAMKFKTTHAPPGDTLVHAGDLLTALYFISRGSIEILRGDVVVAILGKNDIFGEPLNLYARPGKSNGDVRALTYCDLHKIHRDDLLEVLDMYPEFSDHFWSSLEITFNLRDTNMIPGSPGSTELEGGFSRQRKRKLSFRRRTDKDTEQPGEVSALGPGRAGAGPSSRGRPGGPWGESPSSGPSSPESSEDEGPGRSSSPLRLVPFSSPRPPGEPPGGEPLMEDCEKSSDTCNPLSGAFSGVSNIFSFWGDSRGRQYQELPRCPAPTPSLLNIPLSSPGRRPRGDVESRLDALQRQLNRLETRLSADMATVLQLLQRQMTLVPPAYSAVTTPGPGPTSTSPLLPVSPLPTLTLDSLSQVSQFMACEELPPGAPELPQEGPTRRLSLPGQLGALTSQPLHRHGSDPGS

Structure (SMILES)	hERG current change (%, negative = inhibition) at 1uM
CCOC(=O)c1nc(N)sc1C(=O)OCC	6.65%
COc1ccc(NC(=S)Nc2ccc(OCc3ccccc3)cc2)cc1OC	11.1%
COc1ccc(C2=NOC3(CC(=O)N(c4ccc(F)cc4)C3=O)C2)cc1 (stereo not shown)	12.4%
O=C(NCc1ccccn1)c1cn(-c2ccccc2)nc1-c1ccc(Cl)cc1	10.1%
CC1CCc2nc3ccc(S(=O)(=O)N4CCC(C(=O)N5CCCCC5)CC4)cc3c(C(=O)O)c2C1 (stereo not shown)	9.21%
CCCOc1ccc(C(=O)OCCN2CCCCC2)c(O)c1.Cl	-3.03%
CC(NC(=O)c1cccs1)C(=O)NC1=NCCS1 (stereo not shown)	6.35%
CCC(C(=O)OC(C)C)c1ccc2ccccc2c1 (stereo not shown)	9.68%
COc1cccc(Nc2ncnc3c2cnn3-c2cccc(C)c2)c1	1.57%
CC(C)N(CCn1c(=S)[nH]c2ccccc2c1=O)C(C)C	-14%
COc1ccc(OC)c(NC(=O)[C@@]2(CC(=O)O)CC(/C=C/c3ccccc3)=NO2)c1	15.9%
CCOc1cc(C=C2C(=O)NC(=O)NC2=O)ccc1OS(=O)(=O)c1ccccc1	-0.821%
COc1cccc(C(=O)Nc2ccc(NC(=O)C3C4C=CC(C4)C3C(=O)O)cc2)c1 (stereo not shown)	15.4%
O=C(c1ccccn1)N1CCCC(N2CCN(Cc3ccc4c(c3)OCO4)CC2)C1 (stereo not shown)	0.78%
COC(=O)CNC(=O)C12CC3CC(C1)CC(c1ccc(C)cc1)(C3)C2	16.3%
Cc1ccc(OCCC(=O)OCC(=O)Nc2cc(C)cc(C)c2)cc1	19.2%
COc1ccccc1NS(=O)(=O)c1cc(NC(=O)Nc2cccc(C)c2)ccc1N1CCCCC1	8.08%
Cc1cccc(Nc2ccccc2C(=O)O)c1C	5.1%
Cc1ccc(C(=O)Nc2ccccc2Sc2ccccc2)cc1	11.1%
O=C1OCC(CO)(CO)N=C1NNc1ccc(Cl)c(Cl)c1	11.4%
C/C(=N\Nc1ccc([N+](=O)[O-])cc1)c1ccc2c(c1)OCO2	2.1%
NS(=O)(=O)c1ccc(N/N=C/C=C/c2ccccc2[N+](=O)[O-])cc1	9.35%

Structure (SMILES)	hERG current change (%, negative = inhibition) at 1uM
COCCN1C(=O)Cc2c1nc(N)c1c(N)nc(N3CCN(c4ccc(F)cc4)CC3)c(C#N)c21	7.15%
Cc1occc1-c1nnc(SCC(=O)c2c(N)n(C3CC3)c(=O)[nH]c2=O)n1C	2.57%
COc1ccc(C2C(C(=O)NCc3ccco3)CCC(=O)N2c2ccc(OC)cc2)cc1 (stereo not shown)	14.8%
C/C(=N\N=c1/sc2ccccc2n1C)c1ccccn1	6.92%
Cl.N=c1n(CCO)c2ccccc2n1CCN1CCCCC1	10.9%
COc1ccccc1-n1c(SCC(=O)N2CCOCC2)nc(O)cc1=O	-13.9%
O=c1cc(-c2ccc(O)cc2)oc2c(C3O[C@H](CO)[C@@H](O)[C@H](O)[C@H]3O)c(O)cc(O)c12 (stereo partly shown)	9.69%
O=C(Oc1cccc(Nc2ncnc3ccccc23)c1)c1cccnc1	8.31%
Fc1ccc(NC(=S)N2CCCC2)cc1	6.91%
CC(C)N1CC(C(=O)Nc2ccc(Cl)c(Cl)c2)CC1=O (stereo not shown)	5.01%
Cc1ccc(-n2ccnc2SCC(=O)N(CC(C)C)C2CCS(=O)(=O)C2)c(C)c1 (stereo not shown)	-3.07%
COc1ccc(NC(=O)C(C)N2c3cccc4cccc(c34)S2(=O)=O)cc1OC (stereo not shown)	12.9%
O=C(Cn1c(=O)n(CC2CCCO2)c(=O)c2ccccc21)c1ccc(Cl)c(Cl)c1 (stereo not shown)	9.74%
NC(=O)c1ccccc1NC(=O)CSc1nc2ccccc2c(=O)[nH]1	18.2%
CCCC(/C=C/c1ccc(OC(C)=O)cc1)=C1/c2ccccc2C(=O)N1c1ccccc1	11.3%
Cc1cccc(C)c1NC(=O)C1c2cccc[n+]2CC(=O)N1Cc1cccs1.[I-] (stereo not shown)	9.44%
CCCCNC(=O)C1c2cc(OC)c(OC)cc2C(=O)N(C)C1c1ccc(OC)cc1 (stereo not shown)	8.09%
COc1ccccc1/C=C/C=N/n1c(-c2ccc(F)cc2)n[nH]c1=S	8.39%
O=C(NOC(=O)c1ccccc1Cl)c1cccs1	1.96%
Oc1c(C=Nc2ccccc2)sc(=S)n1Cc1ccccc1	8.21%
COc1ccccc1C(=O)Nc1cc2cc(Br)ccc2oc1=O	10.1%
CC(NC(=O)c1ccc(Cl)cc1Cl)C(c1ccccc1)N1CCOCC1 (stereo not shown)	12.9%

Structure (SMILES)	hERG current change (%, negative = inhibition) at 1uM
O=C(O)c1cc(-c2ccc(N3CCOCC3)cc2)nn1-c1ccc(F)cc1	5.3%
COc1ccc(NC(=O)Cn2nnc(C(=O)NCc3cccs3)c2N)cc1Cl	-10.6%
COc1ccc(CNC(=O)Cc2ccc(-c3ccccc3)cc2)cc1OC	14.3%
Clc1ccc(-c2nc3ncccn3c2Nc2ccc3c(c2)OCO3)cc1	14.8%
Cn1nc(-c2ccc(Cl)cc2)cc1NC(=O)CC(C)(C)CC(=O)O	8.09%
COc1ccc(N(CC(=O)Nc2nccs2)S(=O)(=O)c2c(C)[nH]c(=O)[nH]c2=O)cc1	12.1%
O=C(NC1CC2CCCC(C1)N2C(=O)Nc1cccc(F)c1)C1CC1 (stereo not shown)	21.6%
O=S1(=O)C=C(N2CCOCC2)c2ccccc21	18.4%
CCN1CCN(CCC(=O)Nc2cccc(C)c2)CC1.Cl	9.56%
COC(=O)c1ccc(C(=O)OC)c(NC(=O)CSCc2ccc(Cl)cc2)c1	-1.69%
Cc1ccc(Cn2nc(C)c(C=O)c2Cl)cc1	7.51%
Cc1cc(C)c2c(ccc3cccc[n+]32)c1.[O-][Cl+3]([O-])([O-])[O-]	6.35%
CCOc1ccc(NC(=O)COc2ccc(OC)cc2)cc1	13.4%
Cc1ccc(C2(C)NC(=O)N(CC(=O)NCCC3=CCCCC3)C2=O)cc1 (stereo not shown)	8.9%
CCc1cc2c(=O)n(CCC(C)C)c(=S)[nH]c2s1	12.1%
CCN(CC)c1ccc(NC(=O)COC(=O)CCC(=O)c2ccc(F)cc2)cc1	6.69%
CCCCOc1ccccc1N1CCN(CCCN2C(=O)C3CCCN3C2=O)CC1.Cl (stereo not shown)	-31.1%
O=c1c2ccccc2nc2n1C(CSc1ccc(Cl)cc1)CN2 (stereo not shown)	-1.65%
CCC(C)(C)C1CCC(NC(=O)N2CCN(c3ccccc3O)CC2)CC1 (stereo not shown)	9.74%
CC(NC(=O)Nn1cnnc1)(C(F)(F)F)C(F)(F)F	15.6%
Cn1cc(C(=O)NCc2ccccc2)c2ccccc21	3.35%
Cn1ncc(Br)c1C(=O)N1CCCCCC1	13.6%

Structure (SMILES)	hERG current change (%, negative = inhibition) at 1uM
CNc1oc(-c2cccs2)nc1S(=O)(=O)c1ccccc1	-4.28%
CC(C)Cc1oc(C(=O)O)cc1CN.Cl	9.05%
O=C(Nc1ccc(Cc2ccncc2)cc1)c1cc(F)c(F)cc1Cl	-7.02%
O=C1C=C(Nc2ccc(Cl)cc2)C(=O)N1c1ccc(Cl)cc1	12.1%
Cc1sc2ncn(CC(=O)NCC3COc4ccccc4O3)c(=O)c2c1S(=O)(=O)N1CCOCC1 (stereo not shown)	4.87%
Nc1nc(CN2CCCCC2)cs1	-0.548%
Cc1nc(SCC(=O)NC(=O)NCc2ccccc2)nc(C)c1C	-1.47%
CCN1CCN(c2ccc(NC(=O)c3ccc(C#N)cc3F)cc2Cl)CC1	-39.3%
O=C(NC(=S)N1CCOCC1)c1cn(-c2ccccc2)nc1-c1ccccc1	7.42%
O=C(c1ccc(NS(=O)(=O)/C=C/c2ccccc2)cc1)N1CCCCC1	3.33%
CCOC(=O)c1nc(Nc2ccccc2CC)c2ccccc2n1	2.98%
c1cncc(C2Nc3ccccc3-c3nc4ccccc4n32)c1 (stereo not shown)	5.1%
O=C1C2C3C=CC(C3)C2C(=O)N1CN(Cc1ccccc1)CN1C(=O)C2C3C=CC(C3)C2C1=O (stereo not shown)	-0.815%
COc1cccc(C(=O)N[C@@H](C)C(=O)N2CCC3(CC2)NCCc2[nH]cnc23)c1	16.1%
Nc1ncc(-c2ccccc2)c(-c2ccc(OCc3ccccc3)cc2O)n1	3.68%
COC(=O)c1ccc(OCC(=O)Nc2ccccc2C(=O)NC2CC2)cc1	5.82%
CCC1CCCCN1P(=O)(c1ccc(C)o1)C(C)(C)C (stereo not shown)	-3.48%
Cc1c(C(=O)O)sc2nc(CSc3nnc(-c4ccc(F)cc4)n3C)[nH]c(=O)c12	8.36%
CC(OC(=O)c1cccc(-n2cnnn2)c1)C(=O)NC1(C#N)CCCCC1 (stereo not shown)	3.63%
CC(C)(C)C(=O)O/N=C(\N)c1ccc([N+](=O)[O-])s1	12.6%
COc1ccccc1C(=O)NCC(=O)Nc1ccc2c(c1)CCC2	4.16%
Cc1sc(NC(=O)c2ccco2)c(C(Nc2ccccn2)c2ccccc2)c1C (stereo not shown)	7.96%
